# Source: article PMC6919601, “Identification of Plasmodium dipeptidyl aminopeptidase allosteric inhibitors by high throughput screening” (PLoS ONE, 2019)
# Several values for one entry are separate records, joined by “and”; a condition that tells them apart may be missing. Equal entries are not always repeated. In all, about 110,000 compounds went through this assay and about 230 (0.21%) showed an effect of 50% or more. The list shows a part of the results.
# Target: DPAP1 (Plasmodium falciparum, UniProt Q8IIJ9)
# Sequence (Q8IIJ9 whole entry, looked up): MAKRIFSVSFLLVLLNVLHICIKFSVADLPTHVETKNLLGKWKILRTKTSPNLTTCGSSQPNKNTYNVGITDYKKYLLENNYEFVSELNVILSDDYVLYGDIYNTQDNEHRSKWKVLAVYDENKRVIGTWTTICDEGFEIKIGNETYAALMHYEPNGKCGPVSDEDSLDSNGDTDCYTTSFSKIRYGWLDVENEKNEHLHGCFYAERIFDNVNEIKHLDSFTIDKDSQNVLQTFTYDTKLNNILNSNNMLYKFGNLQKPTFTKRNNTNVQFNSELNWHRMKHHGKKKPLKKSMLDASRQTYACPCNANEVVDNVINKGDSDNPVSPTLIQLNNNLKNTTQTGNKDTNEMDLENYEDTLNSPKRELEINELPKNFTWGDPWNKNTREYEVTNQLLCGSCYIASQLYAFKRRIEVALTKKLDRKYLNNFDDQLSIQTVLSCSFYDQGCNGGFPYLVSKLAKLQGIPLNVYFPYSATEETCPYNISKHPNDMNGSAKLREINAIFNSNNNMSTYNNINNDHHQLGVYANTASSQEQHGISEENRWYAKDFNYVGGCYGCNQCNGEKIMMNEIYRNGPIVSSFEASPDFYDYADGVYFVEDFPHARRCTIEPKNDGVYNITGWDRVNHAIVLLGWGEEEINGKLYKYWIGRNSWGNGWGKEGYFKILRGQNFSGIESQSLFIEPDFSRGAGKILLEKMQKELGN
# Assay: primary screen, percent inhibition; read by cleavage of a fluorogenic dipeptide substrate; higher = more effect of the substance
# Set-up: species or system P. falciparum D10 trophozoite lysates; single well
# 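Note: 30 min substrate incubation versus DMSO and 10 µM JCP410 controls.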
row,SMILES,% Inhibition @ 10 uM
1,CCOC(=O)c1c(-c2cccs2)csc1NC=O,-3.98%
2,COc1ccc(C2C(C(=O)Nc3ccccn3)c3ccccc3C(=O)N2C)cc1 (centres unmarked),7.29%
3,Cc1c(-c2ccccc2)sc2ncnc(O)c12,-4.18%
4,CCOc1ccc(CNc2nc3ccccc3n3c(CC)nnc23)cc1OC,0.91%
5,Cc1ccc(-c2noc(CCC(=O)NCc3ccc(F)cc3Cl)n2)cc1,-0.999%
6,O=C(Cc1csc2ccccc12)NC1CCCCCC1,-0.0309%
7,CCC[C@H](NC(=O)[C@H](CS(=O)(=O)NC1CCCCC1)NC(=O)OCc1ccccc1)C(=O)c1nc2ccccc2o1,-1.83%
8,CC1(C)CC2=NN(C(=O)c3ccco3)C(c3ccccc3)C2CO1 (centres unmarked),-5.29%
9,Cc1noc2ncnc(NCCc3ccc(S(N)(=O)=O)cc3)c12,-6.33%
10,Cc1ccccc1Cn1ccc(NC(=O)c2onc(C)c2Cl)n1,-1.7%
11,O=C(NCc1ccc2c(c1)OCO2)c1ccc2nc3[nH]c4ccccc4c3nc2c1,-7.73%
12,O=S1(=O)C=C(N2CCOCC2)CC1,2.56%
13,Cn1c(-c2ccccc2)nc2c(c1=O)C1(CCCCC1)Cc1ccccc1-2,2.51%
14,CC(C)Cc1ccc(C(C)C(N)=O)cc1 (centres unmarked),3.34%
15,Cc1cccc2c1cnn2C(=O)CCC(=O)NCC(C)c1ccccc1 (centres unmarked),1.68%
16,CCOCCCNC(=O)Cn1ncn2c(cc3sc(CC)cc32)c1=O,4.84%
17,CCn1c(S)nnc1-c1ccccc1Br,6.11%
18,CCn1c(C(=O)OC)cc2sc(Cl)cc21,-11%
19,O=S(=O)(Cc1ccccc1)Nc1ccc(F)cc1F,-0.13%
20,CC(C)C[C@H](NS(=O)(=O)c1ccc(C(F)(F)F)cc1)C(=O)NCC#N,-1.41%
21,CCn1cc(/C=C2/SC(=O)N(CC(=O)N3CCN(c4ccccc4)CC3)C2=O)c2ccccc21,-1.63%
22,CN(C)Cc1c(O)ccc2occ(C(O)c3ccccc3)c12 (centres unmarked),5.48%
23,Cc1ccc(CN2CCc3nc(O)nc(O)c3C2)cc1,-1.8%
24,COc1ccc(C2CC(C(F)(F)F)n3nc(C(=O)NCc4c(C)nn(C)c4C)c(Cl)c3N2)cc1 (centres unmarked),-2.8%
25,O=C1/C(=C\c2cccnc2)S/C(=N/c2ccccc2)N1Cc1ccccc1,0.214%
26,CC(C)(C)NC(=O)c1oc2ccccc2c1NC(=O)c1ccco1,6.68%

row,SMILES,% Inhibition @ 10 uM
1,COc1ccc(C2=NN(CC(=O)NCCCSC3CCCCC3)C(=O)CC2)cc1,3.24%
2,COc1ccc(CCNC(=O)Cn2c(=O)c3sccc3n(Cc3ccc(F)cc3)c2=O)cc1OC,-9.28%
3,CC(C)SC1=NSC2=NC(=O)/C(=C\c3ccc(OS(C)(=O)=O)cc3)C(=N)N21,6.91%
4,CCN1CCN(Cc2nc3c(c(=O)n(C)c(=O)n3C)n2Cc2c(F)cccc2Cl)CC1,1.23%
5,CCc1nc(C)cc(CN(C)C23CC4CC(CC(C4)C2)C3)c1O,-0.0953%
6,C#CCNc1cc(C)nc2nncn12,-0.808%
7,CCC(C)NC(=O)CN(C)c1nnc(N2CCCC2=O)s1 (centres unmarked),-0.542%
8,Cc1nc(O)c(C(c2ccc(C(=O)O)cc2)c2c(O)nc(C)nc2O)c(O)n1,-1.69%
9,O=[N+]([O-])c1ccc(S(=O)(=O)N2CCc3ccccc32)cc1,5.69%
10,O=C1CCCN1c1ccc(S(=O)(=O)Nc2ccccn2)cc1,-5.51%
11,CCN(CC)C(=O)c1sc2nc3c(cc2c1N)CCC3,2.17%
12,CN(C)CCCN(C(=O)c1ccc2ncsc2c1)c1nc2c(F)cccc2s1,3.96%
13,CCOc1ccc(-c2cc(C3CC3)c(C#N)c(N)c2C#N)cc1,5.69%
14,O=C1N=C(N2CCOCC2)S/C1=C\c1ccc(N2CCOCC2)cc1,-6.07%
15,CCCCN(CC)CCCNC(=O)C1CCN(c2nc3ccc(OC)cc3s2)CC1,2.59%
16,O=C(Nc1ccc(Cl)c(Cl)c1)C(O)(c1ccccc1)c1ccccc1,-4.21%
17,O=c1cc(CSc2ccccc2)nc2scc(-c3ccccc3)n12,-7.65%
18,O=C(CC1CC2CCC1C2)NC(c1ccccc1)c1ccccc1 (centres unmarked),0.238%
19,CC(C)CC(C(=O)NCC#N)c1cccc(-c2ccc(S(=O)(=O)NCc3ccccn3)cc2)c1 (centres unmarked),-3.04%
20,CC1SC(c2ccccc2)NC1=O (centres unmarked),-3.77%
21,Cc1cccc(OCCOCCN2CCN(C)CC2)c1C,-2.05%
22,CCSc1n[nH]c2nc3ccccc3n12,-2.21%
23,CC(=O)NC(Cc1ccccc1)C(=O)N[C@@H](CCc1ccccc1)C(=O)c1nc2ccccc2o1 (some centres unmarked),-1.83%
24,C=C(C)CN(CC)Cc1ccc(Cl)c([N+](=O)[O-])c1,-4.14%
25,CCc1nonc1NC(=O)c1sc2cc(C)ccc2c1Cl,0.00706%
26,CC(=O)Nc1ccc(N2C(=O)CC(N3CCCCC3C)C2=O)cc1 (centres unmarked),2.55%

row,SMILES,% Inhibition @ 10 uM
1,CSc1ccc(CN2CCOCC2)cc1,-2.34%
2,CSCCOc1nc2c(c(=O)n(C)c(=O)n2C)n1Cc1ccccc1Cl,9.02%
3,COc1ccc(/C=C2/C(=O)N(c3ccc(Br)cc3)N=C2c2ccccc2)c(OC)c1,-0.999%
4,COc1ccccc1/C=C1\SC(N2CCC(C)CC2)=NC1=O,16%
5,COc1ccc(C(=O)N2CCN(Cc3ccc(C(F)(F)F)cc3)CC2)cc1OC,-8.42%
6,CCOC(=O)NC(CC(=O)O)c1ccc(OC)c(OC)c1 (centres unmarked),-1.47%
7,COc1ccc(C2=NS(=O)(=O)N(C)C(C(=O)Nc3cccnc3)=C2)cc1OC,0.655%
8,CCOC(=O)c1nnn(CC(=O)N2N=C(c3ccccc3)CC2c2ccccc2)c1C(=O)OCC (centres unmarked),5.52%
9,COc1ccc(C2(CNC(=O)c3ccc(C)cc3)CCOCC2)cc1,-2.24% and -1.61%
10,c1cncc(CN2CCN(Cc3c[nH]c4ccccc34)CC2)c1,-11.4%
11,Cc1nn(Cc2ccccc2)c(C)c1NS(=O)(=O)c1ccccc1,-4.78%
12,COc1cc(-c2nnc3sc(-c4ccc(C(C)(C)C)cc4)nn23)cc(OC)c1OC,2.89%
13,O=C1c2ccc(F)cc2C(=O)N1Cc1ccccc1,-0.687%
14,O=C(Cc1ccncc1Br)NCCc1c[nH]c2ccccc12,2.79%
15,O=C(O)c1cccc(COc2ccc3ccccc3c2)c1,3.69%
16,COc1cc(C(=O)Nc2sc3c(c2C#N)CCC(C)C3)c(Br)c(OC)c1OC (centres unmarked),5.59%
17,CCOC(=O)c1c(C)n(C)c2ccc(OCC(O)CN3CCCCC3C)cc12 (centres unmarked),-8.95%
18,CO/C(O)=C1/C(C)=Nc2ncnn2C1c1ccc(OC)c(OC)c1 (centres unmarked),-0.339%
19,COc1ccc(CNC(=O)Cc2c(C)c3ccc(O)cc3oc2=O)cc1OC,-4.39%
20,CCOC(=O)c1sc2nc3c(cc2c1N)COC(C(C)C)C3 (centres unmarked),3.54%
21,CSc1nc(N(C)C)nc(N2CC(=O)N(CCNS(=O)(=O)c3ccc(C)cc3)C2=N)n1,2.3%
22,CC(=O)Nc1ccc(NC(=O)c2nn(C)cc2Br)cc1,-1.98%
23,COCCNC(=O)C(=O)NCC(c1cccnc1)N1CCOCC1 (centres unmarked),-1.72%
24,COc1cc(C2CC(=O)OC3=C2C(=O)c2ccccc2C3=O)ccc1OCc1ccccc1F (centres unmarked),7.51%
25,O=C(Nc1ccccc1)C1CC=CCC1C(=O)N(c1ccccc1)c1ccccc1 (centres unmarked),-3.66%
26,O=C(c1ccccc1)c1ccc(NC(=O)c2cccs2)cc1,5.92%

row,SMILES,% Inhibition @ 10 uM
1,CCCCSCCCNC(=O)CCCN1C(=O)c2ccccc2Sc2ncccc21,-4.16%
2,CCOc1ccc(NC(=O)NC2CCCCC2)cc1,-3.94%
3,COc1ccc(CCNCc2c(C(=O)O)n(Cc3cccc(Cl)c3)c3ccccc23)cc1OC,5.09%
4,CSc1nc2nc(C(F)F)cc(-c3ccccc3)n2n1,9.3%
5,CCCCCCSc1nnc(NC(=O)c2ccc(C(=O)OCC)cc2)s1,5.37%
6,CCOc1ccc2cc(C(=O)C3CCCCC3)ccc2c1,0.162%
7,CCC(C)NS(=O)(=O)c1cccs1 (centres unmarked),-5.52%
8,CCCSCCCNCc1c(C(=O)O)c(C)n(Cc2ccccc2)c1C,-5.49%
9,CN(C)/C=C1/N=C2C=C(c3ccccc3)c3cc(Cl)ccc3N2C1=O,-2.29%
10,COC(=O)c1c(-n2cccc2)sc2c1CCCC2,-0.256%
11,O=C(Nc1nc2ccccc2s1)c1cccn(OCc2cccc(Cl)c2)c1=O,1.72%
12,CCOC(=O)C1=C(C)N=c2s/c(=C\c3c(F)cccc3Cl)c(=O)n2C1c1ccccc1 (centres unmarked),1.84%
13,Cc1nc2ccc(NC(=O)N3CCOCC3)cc2s1,1.25%
14,Cc1nc(N2C(=O)c3oc4ccccc4c(=O)c3C2c2ccco2)sc1C (centres unmarked),-5.11%
15,CCOc1ccc(-c2cc(NC(=O)Cn3ncc4c5ccccc5nc-4c3O)on2)cc1,0.721%
16,Cc1cc2oc3c(c(=O)c2cc1C)C(c1ccc(O)cc1)N(c1ccccn1)C3=O (centres unmarked),6.82%
17,Cc1ccc(C(=O)N2CCc3ccccc32)cc1[N+](=O)[O-],-4.4%
18,CC1(C)CC2CC(C)(CN2C(=O)C2CC(c3ccccc3F)=NO2)C1 (centres unmarked),-5.79%
19,CCOc1cc(/C=C2/NC(=O)NC2=O)cc(Cl)c1OC(C)CC (centres unmarked),1.52%
20,CC(C)(C)c1ccc(-c2nnc3sc(-c4ccc5c(c4)OCCO5)nn23)cc1,4.96%
21,COC(=O)C1=C(C(C)=O)C(c2ccccc2OC)n2nnnc2N1 (centres unmarked),0.565%
22,CCCCc1[nH]nc2c1C(c1c[nH]c3ccccc13)C(C#N)=C(N)O2 (centres unmarked),-4.61%
23,COc1ccc(Cn2c(SCc3ccc(C(=O)N4CCCC4)cc3)nc3cccnc32)cc1,3.46%
